Results on 27 compounds are retold here after PubChem BioAssay AID1963576 (National Center for Advancing Translational Sciences (NCATS), 2024).

Hit rate of the full screen: of about 46,000 compounds, about 60 (0.1%) were called active. Inconclusive results (about 3%) are left out. The call rests on the fitted dose curve; in most records, active means well fitted inhibition curve with a large enough effect; inconclusive means small, poorly fitted or top-dose-only effect; inactive means no such curve, though single readings can be large or run the other way. This is one part of the list.

A short description of the test: Primary qHTS assay for Inhibitors of ovarian cancer metastasis using an organotypic tumor microenvironment (TME) model. Further: nearly all actives have a fitted effect of over 65% in size.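 On activity change, negative = inhibition: plate controls were DMSO wells for no effect and tomatine positive control wells for full effect.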 The conditions noted are these: SKOV3ip1-GFP adhesion/invasion on 3D omental model, fluorescence; series mostly up to 45.8 µM; activity change, negative = inhibition: at the top concentration. The gist of the method:
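Adhesion/invasion was scored as fixed GFP-labeled SKOV3ip1 cell counts (488/509 nm), normalized to DMSO and tomatine controls. Cancer cells in serum-free medium, with four compound doses (0.36-46 umol/L), sat 2 hr at RT then 16 hr at 37 C on a 48 hr fibroblast/mesothelial/ECM culture.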
With `CCc1cccc(NC(=O)C(CC)n2nc(C)c3sc4ccccc4c3c2=O)c1` (configuration not stated), the “activity change, negative = inhibition” value was inactive: -4.29%.

Turning to `Cc1ccc(C)c(S(=O)(=O)c2nnn3c2nc(N2CCCCC2)c2sccc23)c1`, the “activity change, negative = inhibition” value was inactive: 4.19%.

As to `CC(C)(C)OC(=O)N1CCC(c2c(C(=O)N3CCN(c4ncccn4)CC3)cnn2-c2cccc(F)c2)CC1`, the “activity change, negative = inhibition” value was inactive: -2.69%.

Turning to `COc1ccc(NC(=O)CCc2nnc3n(CC(C)C)c(=O)c4ccccc4n23)cc1OC`, the “activity change, negative = inhibition” value was inactive: -7.31%.

`CN(C)CCNC(=O)Cn1nc(N2CCN(c3ccccc3)CC2)ccc1=O`: the “activity change, negative = inhibition” value is inactive: -3.7%.

With `CCOc1ccc(CC(=O)NCc2ccc3c(c2)CCN3C(C)=O)cc1OCC`, the compound was classed as inactive.

For the compound `COc1cc2c(cc1OC)n(CC(=O)c1ccc(C)cc1)c(=O)n1nc(CCn3nc(C)cc3C)nc21`, the “activity change, negative = inhibition” value was inactive: -8.9%.

With `COc1ccc(NC(=O)c2ccc3c(c2)CCN3S(=O)(=O)c2ccccc2)cc1`, the “activity change, negative = inhibition” value is inactive: -9.37%.

For the compound `COc1ccc(-c2cc(C(=O)Oc3cccc(C)c3C)c3ccccc3n2)cc1`, the “activity change, negative = inhibition” value is inactive: 3.37%.

In the case of `CC(=O)Nc1nonc1-c1nnc(SCc2ccccc2Cl)n1C`, the “activity change, negative = inhibition” value was inactive: 3.98%.

Regarding `COc1ccc(OC)c(NC(=O)Cn2cc(C(=O)c3ccc(Cl)cc3)c(=O)c3cc(OC)ccc32)c1`, the call was inactive.

Regarding `Cc1ccc(O)c(NC(=O)COCc2cc(-c3ccco3)on2)c1`, the “activity change, negative = inhibition” value was inactive: -8.82%.

In the case of `COc1cccc(CNC(=O)CCNS(=O)(=O)c2ccc3c(c2)CCCC(=O)N3)c1`, the call was inactive.

Take `COc1cccc(CNC(=O)CSc2n[nH]c(-c3ccccc3Cl)n2)c1`: the “activity change, negative = inhibition” value was inactive: -12.6%.

For the compound `Cc1ccc(C)c(Cn2cnc3ccccc3c2=O)c1`, the call was inactive.

In the case of `COc1ccc(OC)c(CCNC(=O)CN2C(=O)COc3ccc(S(=O)(=O)N4CCCCCC4)cc32)c1`, the compound was classed as inactive.

As to `CCc1ccc(CNC(=O)c2ccc3c(c2)nc2n3CCCCC2)cc1`, the “activity change, negative = inhibition” value was inactive: 1.01%.

For the compound `Fc1ccc(-n2ncc3c(N4CCN(Cc5ccccc5)CC4)ncnc32)cc1`, the “activity change, negative = inhibition” value was inactive: 6.2%.

On to `COC(=O)c1cc(OC)c(OC)cc1NC(=O)c1ccc2c(c1)CCN2S(=O)(=O)c1ccccc1`, for which the “activity change, negative = inhibition” value is inactive: 16.5%.

`COc1ccc(CCN2C(=O)CN(C3CCCCCC3)C(=O)C2c2ccc(C)cc2)cc1OC` (configuration not stated): the call was inactive.

In the case of `O=C(NCc1ccccn1)c1nn(-c2ccccc2F)nc1CO`, the call was inactive.

As to `CCOc1ccccc1CN1CCc2nc(Nc3ccccc3)ncc2C1`, the “activity change, negative = inhibition” value is inactive: 2.93%.

Take `Fc1ccccc1C1=NC(c2ccc(C(F)(F)F)cc2)=Nc2ccccc2N1`: the “activity change, negative = inhibition” value was inactive: -6.55%.

Take `COc1ccc(OC)c(NC(=O)c2cc3cc4ccc(C)cc4nc3s2)c1`: the call was inactive.

On to `COc1ccccc1NC(=O)Cn1nc(C)n2cccc2c1=O`, for which the “activity change, negative = inhibition” value was inactive: -5.03%.

`O=C(c1ccc(F)cc1)n1nc(-c2ccc(Cl)cc2)nc1NCc1ccco1`: the “activity change, negative = inhibition” value is inactive: -5.53%.

In the case of `Cc1ccc(CNC(=O)Cn2ccn(-c3cc(C)cc(C)c3)c(=O)c2=O)cc1`, the “activity change, negative = inhibition” value is inactive: -1.95%.
